Substitutions are numbered along the chain they refer to; changes in the protein carry UniProt numbers. This is one part of the list.
T1: RBFOX1 RRM RbFoxmut (Fox-RRM*) (Homo sapiens, UniProt Q9NWB1 109-208, R118D;E147R;N151S;E152T)
T1 sequence: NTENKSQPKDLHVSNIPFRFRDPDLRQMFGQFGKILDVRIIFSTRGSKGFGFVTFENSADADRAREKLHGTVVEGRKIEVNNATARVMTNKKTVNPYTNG

B1: GAGCUGG (DNA:RNA)
RNA: GGGAGACCGGAAUUCAGAUUGUCCGAGCUGGUUAAAUCCCGUCGUAGCCACCA
DNA 1: CAATCTGAATTCCGGTCTCCC
DNA 2: TGGTGGCTACGACGGGATT
B2: UAUUUUC (DNA:RNA)
RNA: B1 RNA with G25U, G27U, C28U, G30U, G31C
DNA 1: CAATCTGAATTCCGGTCTCCC
DNA 2: TGGTGGCTACGACGGGATT
B3: AAUGGAC (DNA:RNA)
RNA: B1 RNA with G25A, G27U, C28G, U29G, G30A, G31C
DNA 1: CAATCTGAATTCCGGTCTCCC
DNA 2: TGGTGGCTACGACGGGATT
B4: CGAUUAC (DNA:RNA)
RNA: B1 RNA with G25C, A26G, G27A, C28U, G30A, G31C
DNA 1: CAATCTGAATTCCGGTCTCCC
DNA 2: TGGTGGCTACGACGGGATT
B5: CCUUCUU (DNA:RNA)
RNA: GGGAGACCGGAAUUCAGAUUGUCCCCUUCUUUUAAAUCCCGUCGUAGCCACCA
DNA 1: CAATCTGAATTCCGGTCTCCC
DNA 2: TGGTGGCTACGACGGGATT
B6: GUUGGGC (DNA:RNA)
RNA: B1 RNA with A26U, G27U, C28G, U29G, G31C
DNA 1: CAATCTGAATTCCGGTCTCCC
DNA 2: TGGTGGCTACGACGGGATT
B7: AGACAAG (DNA:RNA)
RNA: B1 RNA with G25A, A26G, G27A, U29A, G30A
DNA 1: CAATCTGAATTCCGGTCTCCC
DNA 2: TGGTGGCTACGACGGGATT
B8: GCCCUGC (DNA:RNA)
RNA: B1 RNA with A26C, G27C, G31C
DNA 1: CAATCTGAATTCCGGTCTCCC
DNA 2: TGGTGGCTACGACGGGATT
B9: CCUGCCA (DNA:RNA)
RNA: B5 RNA with U28G, U30C, U31A
DNA 1: CAATCTGAATTCCGGTCTCCC
DNA 2: TGGTGGCTACGACGGGATT
B10: AAGGGUC (DNA:RNA)
RNA: B1 RNA with G25A, C28G, U29G, G30U, G31C
DNA 1: CAATCTGAATTCCGGTCTCCC
DNA 2: TGGTGGCTACGACGGGATT
B11: CUGCCAU (DNA:RNA)
RNA: B5 RNA with C26U, U27G, U28C, U30A
DNA 1: CAATCTGAATTCCGGTCTCCC
DNA 2: TGGTGGCTACGACGGGATT
B12: ACUAUUA (DNA:RNA)
RNA: B5 RNA with C25A, U28A, C29U, U31A
DNA 1: CAATCTGAATTCCGGTCTCCC
DNA 2: TGGTGGCTACGACGGGATT
B13: AGGGUGC (DNA:RNA)
RNA: B1 RNA with G25A, A26G, C28G, G31C
DNA 1: CAATCTGAATTCCGGTCTCCC
DNA 2: TGGTGGCTACGACGGGATT
B14: GGAGCAC (DNA:RNA)
RNA: B5 RNA with C25G, C26G, U27A, U28G, U30A, U31C
DNA 1: CAATCTGAATTCCGGTCTCCC
DNA 2: TGGTGGCTACGACGGGATT
B15: GGGGGAC (DNA:RNA)
RNA: B1 RNA with A26G, C28G, U29G, G30A, G31C
DNA 1: CAATCTGAATTCCGGTCTCCC
DNA 2: TGGTGGCTACGACGGGATT
B16: CGUGCUU (DNA:RNA)
RNA: B5 RNA with C26G, U28G
DNA 1: CAATCTGAATTCCGGTCTCCC
DNA 2: TGGTGGCTACGACGGGATT
B17: AUGCUAU (DNA:RNA)
RNA: B1 RNA with G25A, A26U, G30A, G31U
DNA 1: CAATCTGAATTCCGGTCTCCC
DNA 2: TGGTGGCTACGACGGGATT
B18: AAGGUUG (DNA:RNA)
RNA: B1 RNA with G25A, C28G, G30U
DNA 1: CAATCTGAATTCCGGTCTCCC
DNA 2: TGGTGGCTACGACGGGATT
B19: CCGGGCG (DNA:RNA)
RNA: B5 RNA with U27G, U28G, C29G, U30C, U31G
DNA 1: CAATCTGAATTCCGGTCTCCC
DNA 2: TGGTGGCTACGACGGGATT
B20: CUGACAA (DNA:RNA)
RNA: B5 RNA with C26U, U27G, U28A, U30A, U31A
DNA 1: CAATCTGAATTCCGGTCTCCC
DNA 2: TGGTGGCTACGACGGGATT
B21: UCCGUGG (DNA:RNA)
RNA: B1 RNA with G25U, A26C, G27C, C28G
DNA 1: CAATCTGAATTCCGGTCTCCC
DNA 2: TGGTGGCTACGACGGGATT
B22: CGCAACU (DNA:RNA)
RNA: B5 RNA with C26G, U27C, U28A, C29A, U30C
DNA 1: CAATCTGAATTCCGGTCTCCC
DNA 2: TGGTGGCTACGACGGGATT
B23: CCAUCCC (DNA:RNA)
RNA: B5 RNA with U27A, U30C, U31C
DNA 1: CAATCTGAATTCCGGTCTCCC
DNA 2: TGGTGGCTACGACGGGATT
B24: AUUGGCU (DNA:RNA)
RNA: B5 RNA with C25A, C26U, U28G, C29G, U30C
DNA 1: CAATCTGAATTCCGGTCTCCC
DNA 2: TGGTGGCTACGACGGGATT
B25: GGGCAUA (DNA:RNA)
RNA: B1 RNA with A26G, U29A, G30U, G31A
DNA 1: CAATCTGAATTCCGGTCTCCC
DNA 2: TGGTGGCTACGACGGGATT
B26: AUCCUCG (DNA:RNA)
RNA: B1 RNA with G25A, A26U, G27C, G30C
DNA 1: CAATCTGAATTCCGGTCTCCC
DNA 2: TGGTGGCTACGACGGGATT
B27: UUACCCA (DNA:RNA)
RNA: B5 RNA with C25U, C26U, U27A, U28C, U30C, U31A
DNA 1: CAATCTGAATTCCGGTCTCCC
DNA 2: TGGTGGCTACGACGGGATT
B28: GGCCGAU (DNA:RNA)
RNA: B1 RNA with A26G, G27C, U29G, G30A, G31U
DNA 1: CAATCTGAATTCCGGTCTCCC
DNA 2: TGGTGGCTACGACGGGATT
B29: AAAUGGC (DNA:RNA)
RNA: B1 RNA with G25A, G27A, C28U, U29G, G31C
DNA 1: CAATCTGAATTCCGGTCTCCC
DNA 2: TGGTGGCTACGACGGGATT
B30: GUUCUAU (DNA:RNA)
RNA: B1 RNA with A26U, G27U, G30A, G31U
DNA 1: CAATCTGAATTCCGGTCTCCC
DNA 2: TGGTGGCTACGACGGGATT
B31: GCGUGAA (DNA:RNA)
RNA: B5 RNA with C25G, U27G, C29G, U30A, U31A
DNA 1: CAATCTGAATTCCGGTCTCCC
DNA 2: TGGTGGCTACGACGGGATT

Target: T1, RBFOX1 RRM RbFoxmut (Fox-RRM*)
Test: EMSA; HiTS-Eq, 1 nM pool, 10 min; buffer printed only for the single-RNA assays: 10 mM Tris pH 7.5, 150 mM NaCl, 3.4 mM EDTA, 0.001% NP-40, 30 C
Conditions: tags: His6 N-terminal (pET28a); label: 5' 32P
How it was run: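 A pool of RNA with 7 randomized nucleotides, 5′-radiolabelled and with DNA-annealed flanks, was equilibrated at 1 nM for 10 min in 50 µL with purified RbFox RRM, wild type or mutant, across increasing protein concentrations. Free RNA was separated by 8% native PAGE, excised, reverse-transcribed, barcoded by PCR and sequenced. Relative association constants were obtained from read-count changes of each RNA species versus the control reaction and normalised to the cognate motif.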

Binder	binding signal
B1	0.0789 KA relative to UGCAUGU
B2	0.067 KA relative to UGCAUGU
B3	0.0616 KA relative to UGCAUGU
B4	0.0881 KA relative to UGCAUGU
B5	0.0561 KA relative to UGCAUGU
B6	0.0814 KA relative to UGCAUGU
B7	0.0797 KA relative to UGCAUGU
B8	0.0824 KA relative to UGCAUGU
B9	0.0951 KA relative to UGCAUGU
B10	0.0995 KA relative to UGCAUGU
B11	0.0969 KA relative to UGCAUGU
B12	0.133 KA relative to UGCAUGU
B13	0.118 KA relative to UGCAUGU
B14	0.0691 KA relative to UGCAUGU
B15	0.0654 KA relative to UGCAUGU
B16	0.0966 KA relative to UGCAUGU

Binder	binding signal
B17	0.11 KA relative to UGCAUGU
B18	0.256 KA relative to UGCAUGU
B19	0.109 KA relative to UGCAUGU
B20	0.0581 KA relative to UGCAUGU
B21	0.0953 KA relative to UGCAUGU
B22	0.116 KA relative to UGCAUGU
B23	0.0432 KA relative to UGCAUGU
B24	0.133 KA relative to UGCAUGU
B25	0.134 KA relative to UGCAUGU
B26	0.127 KA relative to UGCAUGU
B27	0.112 KA relative to UGCAUGU
B28	0.0763 KA relative to UGCAUGU
B29	0.108 KA relative to UGCAUGU
B30	0.122 KA relative to UGCAUGU
B31	0.119 KA relative to UGCAUGU

— PMC9911399, “Two distinct binding modes provide the RNA-binding protein RbFox with extraordinary sequence specificity”
